PubChem BioAssay AID1345082 (National Center for Advancing Translational Sciences (NCATS), 2018)
Out of some 94,000 compounds screened, about 4,000 (4.3%) were called active. Inconclusive results, whose numbers are uncertain, are shown with a selection of clear calls. Calls follow the shape of the dose curve; as a rule, active = well fitted inhibition curve with a large enough effect; inconclusive = small, poorly fitted or top-dose-only effect; inactive = no such curve, though single readings can be large or run the other way. Potencies beside an inconclusive call are fits to weak or partial responses and may not hold up.

Assay: Cytotoxic Profiling in NIH 3T3 Cell Line of Diverse Libraries Using Quantitative High-Throughput Screening; also: nearly all actives have a fitted effect of over 55% in size
Conditions: NIH 3T3 viability, CellTiter-Glo ATP luminescence, 48-72 h; series mostly up to 96.7 µM
Summary of the method: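 ATP-dependent luminescence (CellTiter-Glo) served as the viability signal for NIH 3T3 cells treated with compound for 48 or 72 hr at 37 °C.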
Potency is read from the fitted curve at half-maximal effect; tags tell the direction and shape of the fitted curve.

Compound	Potency
CC1(C(=O)N2C[C@@H](Oc3ccccc3)C[C@H]2C(=O)NC2CC2)CCCCC1	inactive
O=C(NCc1cccc(C(F)(F)F)c1)c1nn(CCOc2ccccc2)c2c1CNCC2	active: 15.8 µM
O=C(Nc1ccc2c(N3CCCC3)ncnc2c1)c1ccccc1Br	inconclusive: 25.1 µM [inhibitor, full curve]
COCCc1noc(CNC(=O)c2sc3cccc(F)c3c2Cl)n1	inconclusive: 63.1 µM [inhibitor, partial curve, poor fit]
Oc1ccccc1CN1CCNc2cnc(Oc3ccccc3)cc2C1	inconclusive: 56.2 µM [inhibitor, partial curve, poor fit]
Cc1ncsc1C(=O)N1CCc2c(n(Cc3ccccc3)n(-c3ccccc3)c2=O)C1	inconclusive: 8.91 µM [inhibitor, full curve, poor fit]
CN(Cc1cccc(N2CCN(S(=O)(=O)c3c(Cl)cccc3Cl)CC2)c1)S(C)(=O)=O	inconclusive: 22.4 µM [inhibitor, full curve]
CC1CCN(C(=O)[C@@H](C)C2CC[C@@]3(C)CC[C@H](NC(=O)Cc4ccccc4)[C@@H](C)[C@@H]3[C@H]2O)CC1 (stereo partly drawn)	inactive
Cc1ccsc1C(=O)N1CCC2(CC1)NCCc1c2[nH]c2ccccc12	inactive
O=C1CCN(C2CCN(Cc3ccccc3)CC2)CCCC(C(=O)NCc2ccccc2)CCN1 (stereo not drawn)	inactive
Cc1cc(C(=O)Nc2ccc(C(O)[C@H]3COCC(=O)N3Cc3ccc(C(F)(F)F)cc3)cc2)n(C)n1 (stereo partly drawn)	inconclusive: 44.7 µM [inhibitor, partial curve, poor fit]
CCc1cccc2c(C(CC(=O)NC(C)C(C)C)c3ccc(OC)c(OC)c3)c[nH]c12 (stereo not drawn)	inconclusive: 50.1 µM [inhibitor, partial curve, poor fit]
COc1cccc(-c2cnc([C@@H]3COCCN3Cc3ccc(S(C)(=O)=O)cc3)[nH]2)c1	inactive
O=C(Cc1ccccn1)N1CCC(C(=O)N2CCC(c3nc4ncccc4[nH]3)CC2)C1 (stereo not drawn)	inactive
COCc1ncc(C)n1CCNC(=O)c1ccoc1	inactive
COc1ccccc1N1CCN(C(=O)C[C@@H]2CCNC[C@@H]2Cc2cc(CN3CCOCC3)on2)CC1	inactive
Cn1cnc(S(=O)(=O)N2CCCC(Cc3noc(-c4ccccc4)n3)C2)c1 (stereo not drawn)	inconclusive: 50.1 µM [inhibitor, partial curve, poor fit]
CCCn1cc(-c2ccnc(NCc3c(F)ccc(C)c3F)n2)c(C)n1	inconclusive: 44.7 µM [inhibitor, partial curve, poor fit]
N#Cc1ccccc1Nc1ccnc(N2CC3CCC(C2)N3CC(F)(F)F)n1	inactive
CN1Cc2nc(-c3cnn(C)c3)ccc2OCC1=O	inconclusive: 126 µM [inhibitor, partial curve, poor fit]
CN1CCN(C(=O)C2CCCN(Cc3cccc(-c4ccsc4)c3)C2)CC1 (stereo not drawn)	inconclusive: 44.7 µM [inhibitor, partial curve, poor fit]

Compound	Potency
CC(C)C(=O)NC1CCN(c2ccnc3ccnn23)C1 (stereo not drawn)	inconclusive: 100 µM [inhibitor, single point]
O=C1[C@@H]2C[C@@H](CN2C2CCC2)Oc2ccccc2N1Cc1ccc(OC(F)(F)F)cc1	active: 39.8 µM
Cc1csc(NC(=O)c2nc(C(O)c3cccc(O)c3)oc2C)n1 (stereo not drawn)	inconclusive: 89.1 µM [inhibitor, partial curve]
O=[S+]1([O-])c2cnccc2OC(COc2ccccc2)CN1C1Cc2ccccc2C1 (stereo not drawn)	inconclusive: 20 µM [inhibitor, partial curve, poor fit]
Cc1cc(C)n(CCC(=O)N2CCC3(CC2)CC(N(C)Cc2ccccc2)CCO3)n1 (stereo not drawn)	inactive
Cc1ccc(-c2cccc(CN3CCCC(NC(=O)c4ccc(Cl)cc4)C3)c2)cc1Cl (stereo not drawn)	inactive
Cc1cnc(CCNC(=O)CC2CCCCC2)n1CC1CC1	inactive
COc1ccc(-c2nc(CN3CCOC(CN)C3)c(C)o2)c2ccccc12 (stereo not drawn)	active: 25.1 µM
O=C(c1cnccn1)N1CCC(n2cc(-c3nc(-c4ccccc4)no3)nn2)CC1	inconclusive: 50.1 µM [inhibitor, partial curve, poor fit]
Cc1nc(Cn2nc(C3CCCNC3)n(-c3ccccc3)c2=O)cs1 (stereo not drawn)	inactive
O=C(NCc1ccccc1Cl)c1ccc2nnc(-c3ccoc3)n2c1	inconclusive: 50.1 µM [inhibitor, partial curve]
COc1cc(F)ccc1-c1cc2c(nc1-c1ccccc1)nc(C(=O)NCCN(C)C)n2C	active: 20 µM
COC(=O)N1CCC(C(=O)N2CCC(c3nc4ncccc4[nH]3)CC2)CC1	inactive
c1cc(-c2ccc3c(c2)OCCCO3)n2ncnc2n1	inactive
CCOC(=O)[C@H]1[C@@H](O)C(=O)N(Cc2ccccc2)C12CCN(C(=O)C1CCCCC1)CC2	inconclusive: 56.2 µM [inhibitor, partial curve, poor fit]
CC(C)c1nccn1CCCNc1nc(-c2ccncc2)nc2c1cnn2C	inconclusive: 39.8 µM [inhibitor, partial curve, poor fit]
CN(C)c1cccc(C(=O)N2CCC(OCCOc3ccc(F)cc3)CC2)c1	inconclusive: 44.7 µM [inhibitor, partial curve, poor fit]
CC(C)Oc1ccc(CNC(=O)c2ccc(Cn3ccn4nc5c(c4c3=O)CCCC5)cc2)cc1	inconclusive: 31.6 µM [inhibitor, partial curve, poor fit]
CCN1CCN(c2nc3c(s2)CN(C(=O)CCC(C)C)CC3)CC1	inconclusive: 22.4 µM [inhibitor, full curve]
O=C(CCc1conc1-c1cccc(F)c1)NC1CCCCCC1	inconclusive: 50.1 µM [inhibitor, partial curve, poor fit]
Cc1ccc(NC(=O)N2CCC(Cc3nncn3Cc3ccccc3)C2)cc1C (stereo not drawn)	inconclusive: 44.7 µM [inhibitor, partial curve, poor fit]

Compound	Potency
CCOC(=O)c1cccc(NC(=O)N2CC[C@@H](CC(=O)NCc3ccccc3OC)[C@@H](CC)C2)c1	inconclusive: 50.1 µM [inhibitor, partial curve, poor fit]
CC(C)c1noc([C@@H]2C[C@H]3C(=O)NCCCCCCN(C(=O)c4ccc(C#N)cc4)[C@H]3C2)n1	inconclusive: 44.7 µM [inhibitor, partial curve, poor fit]
CC(=O)Nc1ccc(-c2ccc(=O)n3c2[C@@H]2C[C@@H](CN(C(=O)COc4ccccc4)C2)C3)cc1	inactive
Cc1ccc(Cn2c(C3CCN(C(=O)c4ccc(C(F)(F)F)cc4)CC3)n[nH]c2=O)cc1	inconclusive: 50.1 µM [inhibitor, partial curve, poor fit]
COc1ccc(-c2cnc([C@@H]3COCCN3Cc3cn(C)c4ccccc34)[nH]2)cc1	active: 63.1 µM
O=C(O)COc1ccc(-c2nccc3c2C(=O)N(Cc2c[nH]c4ccccc24)CC(COc2ccc(F)cc2F)O3)cc1 (stereo not drawn)	inconclusive: 50.1 µM [inhibitor, partial curve, poor fit]
O=C(c1cnc2c(c1)N([S+](=O)([O-])c1cccnc1)CCC2)N1CCN(Cc2ccccc2)CC1	inconclusive: 31.6 µM [inhibitor, full curve, poor fit]
Cc1noc([C@@H]2CNC[C@H]2C(=O)N2CC=C(c3ccccc3)CC2)n1	inconclusive: 50.1 µM [inhibitor, partial curve, poor fit]
CC1=C[C@@H](CNC(=O)c2cnccn2)[C@H](C(C)C)C[C@H]1Cc1nc2ccccc2[nH]1	inconclusive: 100 µM [inhibitor, partial curve, poor fit]
CCC1=Nc2cc(C(=O)NCCC(C)C)ccc2Sc2ccc(Br)cc21	inconclusive: 5.62 µM [inhibitor, full curve, poor fit]
C#CCNC(=O)c1nc(-c2cccnc2)c2ccccn12	active: 89.1 µM
CN(C)S(=O)(=O)N1CCCC1c1nncn1C1CCCC1 (stereo not drawn)	inconclusive: 50.1 µM [inhibitor, partial curve, poor fit]
COc1ccc(F)cc1-c1ccc(CN2CCCCC2C(=O)NCc2ccccc2)cc1 (stereo not drawn)	inconclusive: 28.2 µM [inhibitor, full curve]
O=C1Nc2ccc(-c3cccs3)cc2C(=O)N2CC[C@H](NS(=O)(=O)c3cccs3)[C@@H]12	inconclusive: 31.6 µM [inhibitor, partial curve]
O=C([C@@H]1C[C@H](F)CN1C(=O)Nc1ccc(Br)cc1)N1CCCCC1	inconclusive: 50.1 µM [inhibitor, partial curve, poor fit]
COc1ccccc1-c1noc(CCC(=O)N2CCC(Cc3noc(C)n3)CC2)n1	inactive
COc1cccc(OCc2nc(C(=O)N(C)Cc3cnc4ccccn34)co2)c1	inconclusive: 35.5 µM [inhibitor, partial curve]
Cn1cccc1-c1noc(C2CCN(C(=O)C3(c4ccccc4)CC3)C2)n1 (stereo not drawn)	inactive
O=[S+]([O-])(c1cccs1)N1CCN(c2ccc3nnc(-c4ccccc4)n3n2)CC1	inactive
COc1ccc(CN2CCOc3nc(Cc4ccccc4)ncc3C2=O)cc1	inconclusive: 56.2 µM [inhibitor, partial curve, poor fit]
COC1CN(c2ccc(C)cc2)C12CCN(C(=O)Cc1cccc(F)c1)CC2 (stereo not drawn)	inconclusive: 44.7 µM [inhibitor, partial curve, poor fit]
